# The supplement of paper PMC4604168 (melanoma cell lines)
# The other results are listed elsewhere or left out. Most values come without repeats; read them as rough.
# Tested on: SkMel30
# Test: cell count relative to DMSO control; melanoma cells; higher = more viable cells
# Conditions: library dose: standard library concentration; 72 h
# 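Note: cells treated in 1,536-well plates, then fixed and DAPI-stained, with nuclei counted from automated high-throughput microscope images.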
row,Structure (SMILES),cell count [%]
1,"Clc1ccc(Nc2nnc(Cc3ccncc3)c3ccccc23)cc1 [vatalanib] + O=c1cc(-c2cccc3c2Sc2ccccc2S3)oc(N2CCOCC2)c1 [KU55933] (first compound 10 µM, partner dose 5 µM)",95.6
2,"OCc1c[nH]c2ccccc12 [Indole-3-carbinol] + O=C1NC(=O)/C(=C/c2ccc(-c3ccc(F)cc3O)o2)S1 [AS252424] (first compound 4 µM, partner dose 5 µM)",83.1
3,"OCc1c[nH]c2ccccc12 [Indole-3-carbinol] + CCc1ccc(CCOc2ccc(CC3SC(=O)NC3=O)cc2)nc1 [pioglitazone] (first compound 4 µM, partner dose 10 µM)",86.8
4,"OCc1c[nH]c2ccccc12 [Indole-3-carbinol] + COc1ccc(-c2ccc3c(N4CCOCC4)nc(N4C[C@@H](C)O[C@@H](C)C4)nc3n2)cc1CO [KU0063794] (first compound 4 µM, partner dose 0.1 µM)",87.4
5,"OCc1c[nH]c2ccccc12 [Indole-3-carbinol] + CCCCCCCCCCCC1=C(O)C(=O)C=C(O)C1=O [Embelin] (first compound 4 µM, partner dose 6 µM)",96
6,"Clc1ccc(Nc2nnc(Cc3ccncc3)c3ccccc23)cc1 [vatalanib] + CCCCCCCCCCCC1=C(O)C(=O)C=C(O)C1=O [Embelin] (first compound 10 µM, partner dose 6 µM)",101
7,"Clc1ccc(Nc2nnc(Cc3ccncc3)c3ccccc23)cc1 [vatalanib] + c1cc(-c2cnn3cc(-c4ccc(OCCN5CCCCC5)cc4)cnc23)ccn1 [Dorsomorphin] (first compound 10 µM, partner dose 2 µM)",78.1
8,"Clc1ccc(Nc2nnc(Cc3ccncc3)c3ccccc23)cc1 [vatalanib] + CCc1ccc(CCOc2ccc(CC3SC(=O)NC3=O)cc2)nc1 [pioglitazone] (first compound 10 µM, partner dose 10 µM)",94.1
9,"OCc1c[nH]c2ccccc12 [Indole-3-carbinol] + COC(=O)c1sccc1S(=O)(=O)Nc1ccc(Nc2ccccc2)cc1OC [GSK0660] (first compound 4 µM, partner dose 5 µM)",103
10,"Clc1ccc(Nc2nnc(Cc3ccncc3)c3ccccc23)cc1 [vatalanib] + O=C(Nc1ccccc1)c1cc([N+](=O)[O-])ccc1Cl [GW9662] (first compound 10 µM, partner dose 10 µM)",61.8
11,"OCc1c[nH]c2ccccc12 [Indole-3-carbinol] + c1cc(-c2cnn3cc(-c4ccc(OCCN5CCCCC5)cc4)cnc23)ccn1 [Dorsomorphin] (first compound 4 µM, partner dose 2 µM)",109
12,"OCc1c[nH]c2ccccc12 [Indole-3-carbinol] + O=c1cc(-c2cccc3c2Sc2ccccc2S3)oc(N2CCOCC2)c1 [KU55933] (first compound 4 µM, partner dose 5 µM)",103
13,"OCc1c[nH]c2ccccc12 [Indole-3-carbinol] + COc1cc2ncnc(Nc3ccc(Oc4ccccc4)cc3)c2cc1OC [SrcI1] (first compound 4 µM, partner dose 10 µM)",122
14,"OCc1c[nH]c2ccccc12 [Indole-3-carbinol] + Cn1cc(/C=C2\C(=O)Nc3cccnc32)c2ccccc21 [GW441756] (first compound 4 µM, partner dose 2 µM)",89.2
15,"OCc1c[nH]c2ccccc12 [Indole-3-carbinol] + Oc1nc(-c2ccc(C(F)(F)F)cc2)nc2c1CSCC2 [XAV939] (first compound 4 µM, partner dose 10 µM)",90.7
16,"Clc1ccc(Nc2nnc(Cc3ccncc3)c3ccccc23)cc1 [vatalanib] + N#Cc1c(O)c2c(-c3ccc(-c4ccccc4O)cc3)csc2[nH]c1=O [A769662] (first compound 10 µM, partner dose 10 µM)",82.4
17,"Clc1ccc(Nc2nnc(Cc3ccncc3)c3ccccc23)cc1 [vatalanib] + O=C(O)C(=O)Nc1sc2c(c1C(=O)O)CCNC2 [TCS401] (first compound 10 µM, partner dose 8.33333 µM)",98.6
18,"Clc1ccc(Nc2nnc(Cc3ccncc3)c3ccccc23)cc1 [vatalanib] + COc1ccc(-c2ccc3c(N4CCOCC4)nc(N4C[C@@H](C)O[C@@H](C)C4)nc3n2)cc1CO [KU0063794] (first compound 10 µM, partner dose 0.1 µM)",96.4
19,"Clc1ccc(Nc2nnc(Cc3ccncc3)c3ccccc23)cc1 [vatalanib] + CC(C)CCN1c2nc(Nc3cc(F)c(O)c(F)c3)ncc2N(C)C(=O)C1C [BID1870] (first compound 10 µM, partner dose 1 µM)",82.9
20,"OCc1c[nH]c2ccccc12 [Indole-3-carbinol] + O=C(Nc1ccccc1)c1cc([N+](=O)[O-])ccc1Cl [GW9662] (first compound 4 µM, partner dose 10 µM)",86.6
21,"Clc1ccc(Nc2nnc(Cc3ccncc3)c3ccccc23)cc1 [vatalanib] + Oc1nc(-c2ccc(C(F)(F)F)cc2)nc2c1CSCC2 [XAV939] (first compound 10 µM, partner dose 10 µM)",106
22,"Clc1ccc(Nc2nnc(Cc3ccncc3)c3ccccc23)cc1 [vatalanib] + O=C1NC(=O)/C(=C/c2ccc(-c3ccc(F)cc3O)o2)S1 [AS252424] (first compound 10 µM, partner dose 5 µM)",94.9
23,"Nc1cccc2c1CN(C1CCC(=O)NC1=O)C2=O (stereo unspecified) [lenalidomide] + COc1cc2c(Oc3ccc4[nH]c(C)cc4c3F)ncnc2cc1OCCCN1CCCC1 [cediranib] (first compound 5 µM, partner dose 2 µM)",101
24,"Clc1ccc(Nc2nnc(Cc3ccncc3)c3ccccc23)cc1 [vatalanib] + COc1ccc(COc2ccc(Cc3cnc(N)nc3N)cc2OC)cc1 [GW2580] (first compound 10 µM, partner dose 5 µM)",64.9
25,"COCC[n+]1c2c(n(Cc3cnccn3)c1C)C(=O)c1ccccc1C2=O + CN(C)S(=O)(=O)c1ccc2c(c1)/C(=C/c1cc3c([nH]1)CCCC3)C(=O)N2 [SU6656] (first compound 0.002 µM, partner dose 2 µM)",61.5
26,"Clc1ccc(Nc2nnc(Cc3ccncc3)c3ccccc23)cc1 [vatalanib] + Cn1cc(/C=C2\C(=O)Nc3cccnc32)c2ccccc21 [GW441756] (first compound 10 µM, partner dose 2 µM)",75.9
